# Results reported in the supplement of paper PMC8728848.
# The list shows a part of the results.
# B1: CSA (Cytisus scoparius), P29257 (protein)
# chain: SEELSFSFTKFKTDQKNLILQRDALITPTGKLQLTTVENGKPAAYSLGRALYSTPIHIWDKSTGDEASFATFFSFVISDAPNPSTAATDGLAFFLAPADTQPQSAGGYLGLFEKDSSYNSSNQIVAVEFDTYYNSAWDPQTNPHIGIDVNTIKSKKVSSWGFKNGNVATVLITYQPSSKSLVASLVYPSGQTSDKTSYIISANVDLKATVPEWVRIGFSATTGQTDNYIETHDILSWSFKSKLPATKN
# Columns and labels:
# Assay in all cases: glycan array binding signal (z-score within array); higher = stronger binding
# Settings in all cases: glycan notation: IUPAC condensed, linker removed
# [1] = biological target: Gal(b1-3)GlcNAc(b1-3)Gal(b1-3)GlcNAc
# In short: (§1)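 The binding signal is a Z-score computed within each array. Data were drawn from 3228 arrays in the Consortium for Functional Glycomics database, restricted to those with a known protein sequence. Scores were averaged over arrays of the same protein sequence at different concentrations or buffers, and over linkers, and negative values can be taken as non-binding.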
# [2] = biological target: Gal(b1-3)GlcNAc(b1-3)Gal(b1-4)Glc
# In short: as §1
# [3] = biological target: Gal(b1-3)GlcNAc(b1-3)Gal(b1-4)GlcNAc
# In short: as §1
# [4] = biological target: Gal(b1-3)GlcNAc(b1-3)Gal(b1-4)GlcNAc(b1-2)Man(a1-3)[Gal(b1-3)GlcNAc(b1-3)Gal(b1-4)GlcNAc(b1-2)Man(a1-6)]Man(b1-4)GlcNAc(b1-4)GlcNAc
# In short: as §1
# [5] = biological target: Gal(b1-3)GlcNAc(b1-3)Gal(b1-4)GlcNAc(b1-2)[Gal(b1-3)GlcNAc(b1-3)Gal(b1-4)GlcNAc(b1-6)]Man(a1-6)[Gal(b1-3)GlcNAc(b1-3)Gal(b1-4)GlcNAc(b1-2)Man(a1-3)]Man(b1-4)GlcNAc(b1-4)[Fuc(a1-6)]GlcNAc
# In short: as §1
# [6] = biological target: Gal(b1-3)GlcNAc(b1-3)Gal(b1-4)GlcNAc(b1-3)Gal(b1-4)GlcNAc(b1-2)[Gal(b1-3)GlcNAc(b1-3)Gal(b1-4)GlcNAc(b1-3)Gal(b1-4)GlcNAc(b1-6)]Man(a1-6)[Gal(b1-3)GlcNAc(b1-3)Gal(b1-4)GlcNAc(b1-3)Gal(b1-4)GlcNAc(b1-2)Man(a1-3)]Man(b1-4)GlcNAc(b1-4)[Fuc(a1-6)]GlcNAc
# In short: as §1
# [7] = biological target: Gal(b1-3)GlcNAc(b1-3)Gal(b1-4)GlcNAc(b1-6)[Gal(b1-3)GlcNAc(b1-3)]Gal(b1-4)Glc
# In short: as §1
# [8] = biological target: Gal(b1-3)GlcNAc(b1-3)Gal(b1-4)[Fuc(a1-3)]GlcNAc
# In short: as §1
# [9] = biological target: Gal(b1-3)GlcNAc(b1-3)Gal(b1-4)[Fuc(a1-3)]GlcNAc(b1-6)[Gal(b1-3)GlcNAc(b1-3)]Gal(b1-4)Glc
# In short: as §1
# [10] = biological target: Gal(b1-3)GlcNAc(b1-3)GalNAc
# In short: as §1
# [11] = biological target: Gal(b1-3)GlcNAc(b1-6)Gal(b1-4)GlcNAc
# In short: as §1
# [12] = biological target: Gal(b1-3)GlcNAc(b1-6)GalNAc
# In short: as §1
# [13] = biological target: Gal(b1-3)GlcNAc(b1-6)[Gal(b1-3)]GalNAc
# In short: as §1
# Gal(b1-3)GlcNAc6S = biological target: Gal(b1-3)GlcNAc6S
# In short: as §1
# [14] = biological target: Gal(b1-3)[Fuc(a1-4)]GlcNAc
# In short: as §1
# [15] = biological target: Gal(b1-3)[Fuc(a1-4)]GlcNAc(b1-2)Man
# In short: as §1
# [16] = biological target: Gal(b1-3)[Fuc(a1-4)]GlcNAc(b1-2)Man(a1-3)[Gal(b1-3)[Fuc(a1-4)]GlcNAc(b1-2)Man(a1-6)]Man(b1-4)GlcNAc(b1-4)[Fuc(a1-6)]GlcNAc
# In short: as §1
# [17] = biological target: Gal(b1-3)[Fuc(a1-4)]GlcNAc(b1-3)Gal(b1-3)[Fuc(a1-4)]GlcNAc
# In short: as §1
# [18] = biological target: Gal(b1-3)[Fuc(a1-4)]GlcNAc(b1-3)Gal(b1-4)GlcNAc
# In short: as §1
# [19] = biological target: Gal(b1-3)[Fuc(a1-4)]GlcNAc(b1-3)Gal(b1-4)[Fuc(a1-3)]GlcNAc
# In short: as §1
# [20] = biological target: Gal(b1-3)[Fuc(a1-4)]GlcNAc(b1-6)GalNAc
# In short: as §1
# [21] = biological target: Gal(b1-3)[GlcNAc(b1-6)]GalNAc
# In short: as §1
# [22] = biological target: Gal(b1-3)[Neu5Ac(a2-6)]GalNAc
# In short: as §1
# [23] = biological target: Gal(b1-3)[Neu5Ac(a2-6)]GlcNAc(b1-4)Gal(b1-4)Glc
# In short: as §1
# [24] = biological target: Gal(b1-3)[Neu5Ac(a2-6)]GlcNAc(b1-6)Gal(b1-4)Glc
# In short: as §1
# [25] = biological target: Gal(b1-3)[Neu5Ac(b2-6)]GalNAc
# In short: as §1
# Gal(b1-4)Gal = biological target: Gal(b1-4)Gal
# In short: as §1
# [26] = biological target: Gal(b1-4)GalNAc(a1-3)[Fuc(a1-2)]Gal(b1-4)GlcNAc
# In short: as §1
# [27] = biological target: Gal(b1-4)GalNAc(b1-3)[Fuc(a1-2)]Gal(b1-4)GlcNAc
# In short: as §1
# Gal(b1-4)Glc = biological target: Gal(b1-4)Glc
# In short: as §1
# Gal(b1-4)Glc6S = biological target: Gal(b1-4)Glc6S
# In short: as §1
# Gal(b1-4)GlcNAc = biological target: Gal(b1-4)GlcNAc
# In short: as §1
# [28] = biological target: Gal(b1-4)GlcNAc(a1-6)Gal(b1-4)GlcNAc
# In short: as §1
# Gal(b1-4)GlcNAc(b1-2)Man = biological target: Gal(b1-4)GlcNAc(b1-2)Man
# In short: as §1
# [29] = biological target: Gal(b1-4)GlcNAc(b1-2)Man(a1-3)Man(b1-4)GlcNAc(b1-4)GlcNAc
# In short: as §1
# [30] = biological target: Gal(b1-4)GlcNAc(b1-2)Man(a1-3)[Gal(b1-4)GlcNAc(b1-2)Man(a1-6)]Man(b1-4)GlcNAc(b1-4)GlcNAc
# In short: as §1
# [31] = biological target: Gal(b1-4)GlcNAc(b1-2)Man(a1-3)[Gal(b1-4)GlcNAc(b1-2)Man(a1-6)]Man(b1-4)GlcNAc(b1-4)[Fuc(a1-6)]GlcNAc
# In short: as §1
# [32] = biological target: Gal(b1-4)GlcNAc(b1-2)Man(a1-3)[Gal(b1-4)GlcNAc(b1-2)Man(a1-6)][Gal(b1-4)GlcNAc(b1-4)]Man(b1-4)GlcNAc(b1-4)[Fuc(a1-6)]GlcNAc
# In short: as §1
binder,measurement,setting,value
B1,glycan array binding signal (z-score),[1],-0.001
same,glycan array binding signal (z-score),[2],-0.178
same,glycan array binding signal (z-score),[3],-0.221
same,glycan array binding signal (z-score),[4],-0.157
same,glycan array binding signal (z-score),[5],-0.108
same,glycan array binding signal (z-score),[6],-0.13
same,glycan array binding signal (z-score),[7],-0.221
same,glycan array binding signal (z-score),[8],-0.163
same,glycan array binding signal (z-score),[9],-0.169
same,glycan array binding signal (z-score),[10],-0.224
same,glycan array binding signal (z-score),[11],-0.199
same,glycan array binding signal (z-score),[12],-0.217
same,glycan array binding signal (z-score),[13],-0.199
same,glycan array binding signal (z-score),Gal(b1-3)GlcNAc6S,-0.231
same,glycan array binding signal (z-score),[14],-0.076
same,glycan array binding signal (z-score),[15],-0.142
same,glycan array binding signal (z-score),[16],-0.009
same,glycan array binding signal (z-score),[17],-0.175
same,glycan array binding signal (z-score),[18],-0.171
same,glycan array binding signal (z-score),[19],-0.176
same,glycan array binding signal (z-score),[20],-0.11
same,glycan array binding signal (z-score),[21],-0.195
same,glycan array binding signal (z-score),[22],-0.169
same,glycan array binding signal (z-score),[23],-0.185
same,glycan array binding signal (z-score),[24],-0.176
same,glycan array binding signal (z-score),[25],-0.207
same,glycan array binding signal (z-score),Gal(b1-4)Gal,-0.174
same,glycan array binding signal (z-score),[26],-0.213
same,glycan array binding signal (z-score),[27],-0.187
same,glycan array binding signal (z-score),Gal(b1-4)Glc,-0.208
same,glycan array binding signal (z-score),Gal(b1-4)Glc6S,-0.158
same,glycan array binding signal (z-score),Gal(b1-4)GlcNAc,-0.142
same,glycan array binding signal (z-score),[28],-0.217
same,glycan array binding signal (z-score),Gal(b1-4)GlcNAc(b1-2)Man,-0.173
same,glycan array binding signal (z-score),[29],-0.221
same,glycan array binding signal (z-score),[30],0.292
same,glycan array binding signal (z-score),[31],-0.164
same,glycan array binding signal (z-score),[32],0.178
